# Laboratory results taken from the supplement of paper PMC4166925.
# ± gives the standard deviation of the averaged measurements. The full ranking holds about 33,000 sequences; the median of “E-score (dimensionless, -0.5 to 0.5)” is about -0.046, and the highest 2% start at about 0.36. This is one part of the list.
# System: T1, SpTbr T-box DNA-binding domain (GST fusion)
# T1 sequence: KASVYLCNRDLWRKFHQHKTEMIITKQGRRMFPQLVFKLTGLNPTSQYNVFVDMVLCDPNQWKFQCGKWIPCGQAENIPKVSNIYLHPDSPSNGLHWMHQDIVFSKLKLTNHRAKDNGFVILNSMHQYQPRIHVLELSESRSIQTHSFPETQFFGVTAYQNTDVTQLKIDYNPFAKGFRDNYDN
# Experiment: PBM E-score of 8-mer (E-score (dimensionless, -0.5 to 0.5)); Tbr is Tbrain of the sea star Patiria miniata (Pm) or the sea urchin Strongylocentrotus purpuratus (Sp); higher = stronger binding preference; most listed sequences are background and not binding sites
# Details: the construct has about 5 more residues each side
# Protocol: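 Universal protein-binding microarray (Agilent AMADID 016060, 60-bp probes with a 35-bp variable region) incubated with 200 nM GST-fused Strongylocentrotus purpuratus Tbr T-box DNA-binding domain (residues 362-554) in PBS pH 7.5. Scored for every ungapped 8-mer (given with its reverse complement) as E-score (range -0.5 to 0.5; >0.45 counts as bound) and Z-score of median probe intensity. Two replicate arrays (datasets 1 and 2).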
# 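Note: protein at 200 nM in PBS on universal double-stranded arrays.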
row,Sequence,PBM E-score of 8-mer
1,CACTTACC,0.249 ± 0.049
2,CGGGGAAA,-0.111 ± 0.013
3,TGCCATAA,-0.00072 ± 0.032
4,GAAGTAAC,-0.0552 ± 0.026
5,TACCCTAA,-0.0552 ± 0.034
6,GTGCAACA,0.15 ± 0.0074
7,GTGTGATA,0.459 ± 0.0047
8,AGGTTTAT,-0.113 ± 0.038
9,AGGGTACC,-0.119 ± 0.026
10,GCGACATA,0.18 ± 0.031
11,AATTCACC,-0.0331 ± 0.031
12,GATATCCC,-0.172 ± 0.075
13,AAGATGGC,-0.0186 ± 0.037
14,ATGATCGA,-0.0315 ± 0.09
15,ACGGATCC,-0.158 ± 0.061
16,CAATGTGC,0.224 ± 0.032
17,GATATGCA,0.00558 ± 0.032
18,GACGTTAC,-0.0566 ± 0.094
19,GTCTGGAA,-0.195 ± 0.017
20,AAGGAGCG,-0.175 ± 0.012
21,ATTATGCC,-0.192 ± 0.042
22,CAGACATG,-0.00281 ± 0.052
23,AGCTACCC,-0.299 ± 0.043
24,CGACCGTC,0.0112 ± 0.079
25,ACAACCGA,0.0893 ± 0.019

row,Sequence,PBM E-score of 8-mer
1,AATTCACT,-0.0166 ± 0.019
2,AGCGCGCG,0.131 ± 0.084
3,AAACCTCG,0.0284 ± 0.048
4,ACAGTCCT,-0.0271 ± 0.062
5,ATCCTCAC,0.347 ± 0.013
6,ATTGAAGA,-0.24 ± 0.0088
7,AGTGAGAA,0.422 ± 0.014
8,GCTCGCTA,0.015 ± 0.0023
9,AGTACCAT,-0.0603 ± 0.023
10,ATAGGAGG,0.0196 ± 0.0055
11,TGGAATAA,-0.142 ± 0.015
12,CGGTATCC,-0.302 ± 0.053
13,ACCACACT,0.328 ± 0.0063
14,TTACCCAA,-0.0514 ± 0.0097
15,CTGAGGGC,-0.0979 ± 0.0046
16,ATAAATAT,-0.01 ± 0.032
17,TAGTGCGA,0.4025 ± 0.0017
18,CCCTCGCG,0.159 ± 0.035
19,TAGCTTGA,-0.286 ± 0.051
20,GACGAAGA,-0.023 ± 0.028
21,ATAATTGA,-0.00127 ± 0.01
22,CGTGTAAC,0.134 ± 0.0023
23,ATCCCTCC,-0.1562 ± 0.00086
24,TCGCACCA,0.434 ± 0.023
25,GAGATTAC,0.0619 ± 0.027

row,Sequence,PBM E-score of 8-mer
1,CGCACGGA,0.0299 ± 0.029
2,CGGTCGCC,0.0767 ± 0.062
3,CTACACCC,0.179 ± 0.12
4,GCGGCCAC,-0.0648 ± 0.063
5,GAACCGCC,-0.0733 ± 0.0011
6,TCCCCGGA,-0.159 ± 0.0096
7,CTAGTTTC,-0.105 ± 0.053
8,CGTTCGCC,0.11 ± 0.024
9,CAGGGGAA,-0.152 ± 0.012
10,CGTAAGGC,-0.169 ± 0.0086
11,ACTTGTAG,0.0359 ± 0.044
12,GACTTAGC,0.00445 ± 0.0068
13,ACCTCGGC,0.146 ± 0.0072
14,ACAGTGCC,-0.0283 ± 0.038
15,TCCTCGAA,-0.0695 ± 0.038
16,GAAAATTC,-0.0558 ± 0.073
17,ATCCGCAC,0.319 ± 0.0057
18,CACAATCA,0.178 ± 0.038
19,GGATACAC,-0.162 ± 0.016
20,AGACGCAT,-0.152 ± 0.021
21,CCATAAAG,-0.147 ± 0.033
22,ATCTTGCC,-0.0917 ± 0.02
23,ACTGACTG,0.101 ± 0.027
24,TAATACTA,-0.225 ± 0.099
25,AACGGACA,0.0523 ± 0.035

row,Sequence,PBM E-score of 8-mer
1,CCTAATGC,0.0305 ± 0.048
2,ACGGAGCC,-0.0943 ± 0.051
3,AGGCGTAC,-0.116 ± 0.022
4,CTGATAAC,0.0585 ± 0.034
5,ATCTAAAA,-0.224 ± 0.078
6,AATTTTTC,0.00787 ± 0.08
7,CGCACTCC,0.241 ± 0.039
8,ACCCGAAT,0.0131 ± 0.0018
9,AGTGCAGA,0.148 ± 0.042
10,AACAAGTT,0.133 ± 0.07
11,ACTCCTCA,0.0396 ± 0.023
12,AGGTCGTA,-0.0447 ± 0.037
13,AAAACCGC,0.00843 ± 0.043
14,AGTACAGC,-0.177 ± 0.018
15,AAACTCCA,-0.00111 ± 0.082
16,ATACAATC,-0.175 ± 0.038
17,ACGACTAG,0.089 ± 0.07
18,ACGGGGCG,0.0842 ± 0.016
19,CACGACGC,0.0258 ± 0.17
20,CATGGCGC,0.123 ± 0.024
21,CGCCCGCC,0.0256 ± 0.064
22,AGATTTGC,-0.00795 ± 0.0031
23,ATCCATTA,-0.0833 ± 0.079
24,CGCATCCG,0.0231 ± 0.073
25,AACGCATG,0.0228 ± 0.0081

row,Sequence,PBM E-score of 8-mer
1,ATACATCG,-0.0924 ± 0.14
2,ATCGCCAA,0.082 ± 0.066
3,ACCATGCG,0.0991 ± 0.1
4,GGGTCGCA,0.161 ± 0.04
5,CATTGGTA,-0.0191 ± 0.061
6,ATGTCCTC,0.000325 ± 0.1
7,GCTCTTGA,-0.0936 ± 0.022
8,CGCCTATC,0.177 ± 0.041
9,AGTCATGG,-0.0576 ± 0.067
10,ACTACCAG,-0.106 ± 0.028
11,CGTGTGGC,0.227 ± 0.026
12,AGAGAATG,-0.14 ± 0.097
13,AATAAAGT,-0.0833 ± 0.1
14,TCTATCAA,-0.141 ± 0.0063
15,GCTATGCC,-0.179 ± 0.013
16,CCCTGCTA,0.0606 ± 0.013
17,TAACGCCA,0.287 ± 0.011
18,TGATTACA,0.181 ± 0.027
19,AGCTACTG,-0.1381 ± 0.00048
20,ATGCCTAG,-0.258 ± 0.055
21,CAACCTCC,0.139 ± 0.03
22,AGTATCCA,-0.118 ± 0.0082
23,ATCAAGAA,-0.219 ± 0.094
24,AAGATGAA,-0.145 ± 0.019
25,ACCCCTAT,-0.0129 ± 0.053

row,Sequence,PBM E-score of 8-mer
1,GTCAACGA,0.256 ± 0.054
2,CGACCTGC,0.177 ± 0.026
3,CAGTGTGA,0.393 ± 0.0076
4,CGATGTGC,0.244 ± 0.03
5,GATGGCCA,-0.303 ± 0.027
6,ACTCCCAC,0.168 ± 0.048
7,GTGCGTTA,0.236 ± 0.012
8,TGATACAA,0.0954 ± 0.002
9,ACCATTCT,-0.0407 ± 0.1
10,CACCCTGA,0.217 ± 0.054
11,GACAGGAA,0.0368 ± 0.027
12,TAACTACA,0.0924 ± 0.085
13,CAAAACAC,0.142 ± 0.11
14,CACCCTCC,0.303 ± 0.025
15,CGATCCGA,-0.0614 ± 0.036
16,CTGCGCAA,0.0563 ± 0.0046
17,CTGTATGA,-0.196 ± 0.066
18,ACGTAGAG,-0.0816 ± 0.021
19,AACGAGCT,-0.117 ± 0.012
20,AAACCTTC,-0.199 ± 0.08
21,AGTGGAAG,-0.141 ± 0.012
22,ATGAACTG,0.0309 ± 0.018
23,CCCGACTC,0.103 ± 0.034
24,GATTGTTA,0.137 ± 0.0022
25,CCAGTAGC,-0.0938 ± 0.092

row,Sequence,PBM E-score of 8-mer
1,CCTCAGCG,-0.154 ± 0.046
2,CGTAGCAG,0.0623 ± 0.075
3,GGACTTCA,-0.288 ± 0.012
4,ACTTGGCA,0.163 ± 0.034
5,CGACGCAC,-0.103 ± 0.023
6,GATGGACC,-0.0614 ± 0.066
7,AGCCTATG,-0.165 ± 0.014
8,GTTCTCAA,0.19 ± 0.032
9,ACTACAAG,-0.0799 ± 0.021
10,ACTTCGCG,0.349 ± 0.014
11,GACATGAA,0.126 ± 0.011
12,CGCTTTCA,0.0674 ± 0.06
13,CGCGCACG,0.229 ± 0.086
14,CTACAAGA,-0.156 ± 0.024
15,CGTCTGTC,0.136 ± 0.045
16,AATACTCG,0.0591 ± 0.015
17,CAGCTCCG,0.0249 ± 0.014
18,CTCTAACC,-0.166 ± 0.0037
19,AACTATAA,-0.172 ± 0.029
20,TAAGCCTA,-0.209 ± 0.074
21,CTTCTAAC,0.16 ± 0.038
22,AAGCGTGC,0.141 ± 0.046
